# Among all 150,000 compounds or so, about 540 (0.36%) showed an effect of 50% or more. The list shows a part of the results.
# Tested on: Plasmodium falciparum
# Test: Primary screen in NF54 nanoGlo assay, in single point, at 2uM, 72h; a lower Z score goes with more inhibition
# Type: functional, Erythrocyte
# Conditions: timepoint 72 hour
Structure (SMILES),% Inhibition [%],Z score
CCc1c(O)nc(N2CCOCC2)[nH]c1=O,-6,0.79
Cc1oncc1CNC(=O)Cc1ccc(F)cc1,-10,1.56
CC[C@H](C)N(CCO)c1ncc(Br)cn1,2,-0.22
Cc1ccc(C)c(CC(=O)N2CCO[C@H](c3nc(C)cs3)C2)c1,1,-0.27
N[C@H]1CCCN(C(=O)c2ccc3[nH]ncc3c2)C1,6,-0.72
Cc1cc(C)n(CC2(CNC(=O)CCc3csc(N)n3)CC2)n1,4,-0.73
O=C(Nc1ccccc1Cl)N1C2CCC1CC(Oc1ccccn1)C2 (configuration not stated),-15,1.91
CN(CCCc1cnn(C)c1)c1cc(N2CCOCC2)ncn1,0,0.04
CC(C)c1nc(C(=O)N[C@@H](C)c2ncon2)cs1,-5,0.63
Cc1cn2c(n1)CC[C@H](NCc1c(C(C)C)nn(C)c1N1CCOCC1)C2,-5,0.66
O=S(=O)(C1COC1)N1CC[C@H]1C1CC1,-8,1.31
CC(C)C(=O)N1CCc2cc(CNC(=O)c3cccnc3)ccc21,-12,1.06
COCCc1noc(C2CN(S(=O)(=O)c3cccc(OC)c3)C2)n1,-6,0.74
C[C@@H](CNc1nccn(-c2ccc3c(c2)OCCO3)c1=O)c1ccccc1,1,-0.16
COc1ccc(-c2csc(-c3nc(-c4cccc(Cl)c4)cs3)n2)cc1,-13,1.47
C[C@@H](C(=O)O)N1CCN(c2ccnc(N(C)C)n2)CC1,-3,0.4
CCCN(CC(=O)O)C(=O)Cc1ccc(C)cc1,-8,1.41
C[C@H]1Cc2cc(Br)cc3c(=O)c(C(=O)NCCc4ccccc4)cn1c23,-2,0.38
c1ccc(-n2ncc3c2N=C(N2CCCCCCC2)NC3)cc1,-3,0.43
Cc1ccc(C)c(CN2CCCN(c3ccc(C)cc3NC(=O)c3cccs3)C2=O)c1,-17,2.85
CC1CCN(C(=O)Cn2nnc([C@@]3(C(F)(F)F)CCCN3)n2)CC1,-6,0.58
CCCCc1nc(CN2CCNC(=O)[C@@H]2CC)no1,-9,0.94

Structure (SMILES),% Inhibition [%],Z score
COc1cc(N(C)CC2(CO)CCOCC2)ncn1,0,0.04
COCCN(CC(=O)OC)Cc1cc(C)no1,3,-0.41
COc1ccc(-c2ccc(N3CCCN(C(=O)CN(C(=O)C4CCC4)C4CC4)CC3)nn2)cc1OC,-5,0.83
CC(C)c1cc([C@@H]2CCCN2S(=O)(=O)c2ccc(Cl)s2)on1,-5,0.97
CCOc1ccc(S(=O)(=O)N2CCC(Oc3cc(C)n(C)c(=O)c3)CC2)cc1F,-5,0.9
CCCCN(C)c1ccc(C(F)(F)F)cc1C(=O)O,-23,2.66
Cc1cncc(-c2c(C(F)(F)F)nn(C)c2C)c1,8,-1.47
CC(C)n1ncnc1CNC(=O)c1ccn(CCc2ccccc2)n1,-11,1.93
CCc1cc(C(=O)N2CCC[C@H](C)C2)c2c(C)noc2n1,-1,0.13
COCCN(CC(C)C)c1ncns1,-3,0.51
COc1ccc(OC)c(CN(Cc2nc(C(=O)NCc3ccc4c(c3)OCO4)co2)C(C)C)c1,-1,0.07
CCOC1CC(c2nc(Cc3cc(Cl)ccc3Cl)no2)C1 (configuration not stated),-9,1.55
Cc1ccc(-n2cc(-c3ccccc3)nc2NC(=O)CN(C(=O)Cc2ccccc2)C(C)C)cc1C,-3,0.67
COc1cccc2c1OC[C@@H](C(=O)N1CCN(c3ccccn3)CC1)C2,17,-2.2
CC(C)=CCC[C@@]1(C)CCC(=O)N(Cc2ccon2)C1,-6,1.06
CCOc1ccc(OCC)c(NS(=O)(=O)c2ccc(-c3ccno3)cc2OC)c1,-6,1.08
COCC(=O)N[C@@H]1CN(C(=O)c2cc(F)cc(Cl)c2)C[C@H]1c1ccnn1C,2,-0.37
COc1nc(-c2cccc(C(=O)NCCCc3nnc(N)s3)c2)nn1C,-16,2.81
O=C(NCCCc1ccccc1)c1cccc2c1C(=O)N(C1CCCCC1)C2,0,0
Cc1ccc(C(=O)N(CCC#N)CC2CC2)cc1Oc1ccncc1,7,-0.9
CNC(=O)[C@H]1CN(Cc2ccncc2)C[C@@H]1NC(=O)c1ccoc1C,-4,0.44
CCc1cccc(/N=C(\NCc2ccccn2)NC(=O)c2ccc(Cl)cc2)c1,-11,1.01

Structure (SMILES),% Inhibition [%],Z score
O=C(CN1CCCN(c2ncnc3cc(-c4ccc(F)cc4)sc23)CC1)N1CCCC1,-1,0.13
CCn1cc(CN2C[C@H](NC(=O)CCC(F)(F)F)[C@@H](C3CC3)C2)cn1,-7,0.96
O=C1c2ccccc2C(=O)N1CCN1CCN(c2ncccn2)CC1,0,-0.03
COc1ccccc1[C@@H]1N(c2ccccc2)OC(=O)N1c1cccc(Cl)c1,-4,0.51
COc1cc(C(=O)N2CCN(Cc3csc(C(C)(C)C)n3)CC2)on1,0,0.05
Cc1cc(C(=O)NCCCn2cn[nH]c2=O)ns1,-4,0.59
COc1ccc(CCCN(C)CCS(C)(=O)=O)cc1,-16,2.5
CCc1nccc(CN2CCC[C@H](c3nnc4ccccn34)C2)n1,3,-0.37
O=c1c2ccccc2nnn1CCNS(=O)(=O)c1ccc(-n2cccn2)cc1,-16,2.78
Cc1nc(-c2nc([C@H]3CCNC3)n(Cc3c(F)cccc3Cl)n2)cs1,-14,1.93
C#CC[C@H](NC(=O)c1ccccc1CC)C(N)=O,-9,0.99
O=C1C[C@@H](c2ccc3c(c2)OCO3)c2cc3c(cc2N1)OCO3,-12,1.13
Cc1cc(O)nc(C(=O)N2CCc3c(C)cc(C)cc3C2)c1,-7,0.59
O=C(Cc1ccc(F)cc1)Nc1nnc(Cc2ccc3c(c2)OCCO3)o1,-3,0.35
O=C(NC[C@]1(O)CCCNC1)c1ccc(-c2ccc(O)c(Cl)c2)cc1,-21,3.21
CN(CC(=O)NCc1cccs1)c1nnc(N2CCCC2=O)s1,-2,0.36
Cn1nccc1C(=O)N(Cc1ccncc1)Cc1ccc2c(c1)OCO2,-5,0.62
COc1ccccc1-c1nnc([C@H]2CCN(CCCc3ccccc3)C2)o1,-11,1.68
CC1CN(c2nnc(NC(=O)c3ccccc3)s2)CC(C)O1 (configuration not stated),-11,1.6
CC12CN(S(=O)(=O)c3ccccc3)C3(C(=O)O)CC1CCC23C (configuration not stated),6,-0.98
O=c1n(Cc2nccn2CC(F)(F)F)nc2c(Cl)cccn12,-1,0.15
Cc1nc(N2CCC(Nc3ccccn3)CC2)nc2cc(S(C)(=O)=O)ccc12,-7,0.78

Structure (SMILES),% Inhibition [%],Z score
CC(C)c1nc(C(=O)Nc2ccccc2CN2CCNC2=O)cs1,30,-0.47
O=C(c1c(O)cc(F)cc1F)N1CCCC[C@@H]1CN1CCOCC1,-13,1.9
COc1ccc(Cc2nnc(C(=O)NCCN3CCN(c4cccc(Cl)c4)CC3)o2)cc1OC,-1,0.12
Cc1ccc([C@H](C)N(C)CC(N)=O)s1,-4,0.65
Cc1nn(C)c(C)c1C(=O)C(=O)N1CCC[C@H](C)C1,-31,3.67
C[C@H](CNCc1nnc2ccccn12)Cc1ccccc1,-12,1.6
C[C@@H](C(=O)NCc1ccc2c(c1)CCCC2)n1cccn1,2,-0.41
CC(C)C(=O)Nc1nnc(-c2cc(Cl)sc2Cl)o1,-6,1.09
CC(C)c1ccc(C#N)c(N(C)CC(C)(C)CO)n1,-21,2.08
O=C(COc1ccc(Cl)cc1Cl)N1CC=C(c2c[nH]c3ccccc23)CC1,-16,1.32
CC(C(=O)NC1CC2CCC1C2)N(c1ccc2c(c1)OCCO2)S(C)(=O)=O (configuration not stated),-22,2.01
C[C@H]1CC(=O)NCCN1C(=O)Nc1ccccc1N1CCCC1=O,1,-0.07
N#CCCn1ncc2c(N3CCc4sccc4C3)ncnc21,-8,1.2
Cc1ccc([C@H]2Oc3ccccc3-n3c(-c4ccccc4C)c4c(=O)n(C)c(=O)n(C)c4c32)c(O)c1,-4,0.65
CC(C)c1nnc2n1[C@](C)(C(=O)NCCN1CCN(c3cccc(Cl)c3)CC1)COC2,-12,1.36
COc1ccnc(C(=O)NCc2c(C)n[nH]c2C)c1,-13,1.24
CCn1cc(C(=O)N[C@@H](C)COc2ccccc2OC)cn1,-8,1.1
CNC(=O)[C@@H]1CCCCN1Cc1ccon1,28,-3.14
CC[C@H](C)NC(=O)CCCc1nnc(C(=O)Nc2ccccc2C)s1,-3,0.49
COc1cccc(OC)c1C(=O)Nc1c(-c2ccc(C(F)(F)F)cc2)n[nH]c1C1CC1,-12,2.14
